Test results reported in the RNAGym collection of RNA variant scans (doi:10.1093/nar/gkz1192).
Read counts are not given, so values of variants with three or more changes are uncertain.

B1: CPEB3 Ribozyme (parent)
chain: UAACAGGGGGCCACAGCAGAAGCGUUCACGUCGCAGCCCCUGUCAGAUUCUGGUGAAUCUGCGAAUUCUGCUGUAUAUCUC

Variants of: B1
Experiment: self-cleavage, relative activity (ratio to wild type); higher = more cleavage; in vitro, sequencing
Outline: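 Relative activity was defined as the cleaved/total read fraction for a variant divided by the same fraction for the unmutated ribozyme. CPEB3 self-cleaving ribozyme libraries were made by rounds of error-prone PCR, barcoded, and transcribed in vitro with T7 RNA polymerase for 5 hours at 37°C, and cleavage ran through transcription plus a 15 min DNase I step before EDTA. Illumina sequencing of template-switched reverse transcripts gave the reads, and DNA sequencing mapped the barcodes. Averages come from three batches, using variants with at least 5 reads.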
Variant A13G A21U U31C A75U has a self-cleavage of 0.23.
For A13G A45U A56G, the self-cleavage was 0.52.
For A13G A35C G53A U80A, the self-cleavage was 0.87.
In the case of A13G A28G A47U U72C, the self-cleavage is reported as 0.09.
A13G A21G U43A U51C U60C gave a self-cleavage of 0.13.
Variant A13G A20G C32A U60C A64G has a self-cleavage of 0.05.
Variant A13C A45U U67C U80A has a self-cleavage of 0.13.
In the case of A13C A18U U25A U26A U48C U60C, the self-cleavage is reported as 0.11.
Work on A13G A18G U41C U60C yielded a self-cleavage of 0.31.
In the case of A13C A21G U25A U26C U60C, the self-cleavage is reported as 0.1.
Variant A13C U41C C44U U60A has a self-cleavage of 0.17.
Work on A13G A20U A21U C40U U78C yielded a self-cleavage of 0.18.
For A13G A45G U48C U51C A64G, the self-cleavage was 0.13.
In the case of A13G A35G U66C U72A, the self-cleavage is reported as 0.22.
Work on A13G A35G A45G U67A U76C yielded a self-cleavage of 0.15.
Work on A13C A45G U51A U54A A56G yielded a self-cleavage of 0.3.
For A13G A28G C39A U72C A75G, the self-cleavage was 0.07.
A13G A18U A57G showed a self-cleavage of 0.18.
In the case of A13G A18G U43C U80C, the self-cleavage is reported as 0.08.
A13G A20U U25C C32U C68A gave a self-cleavage of 0.12.
With A13C A21G U41C U49C A56G U69C U78A the self-cleavage was 0.19.
A13G A20U A35U U43C U48A U66C showed a self-cleavage of 0.07.
For A13C A18G C44U, the self-cleavage was 0.09.
For A13G A35G A45G U51C U80A, the self-cleavage was 0.36.
Variant A13C U25C A35G C39A U51G G53U has a self-cleavage of 0.02.
Variant A13C A20G A45G has a self-cleavage of 0.51.
Variant A13G A18C U51C U69C has a self-cleavage of 0.25.
A13C A35U U41C U60A showed a self-cleavage of 0.26.
Variant A13G A56G U69A has a self-cleavage of 0.3.
Variant A13G A20C G24A U43C U80G has a self-cleavage of 0.05.
Variant A13C A57G U69A has a self-cleavage of 0.53.
In the case of A13G A45C U51C A56G U69A, the self-cleavage is reported as 0.2.
Work on A13G A35U U48C U58A yielded a self-cleavage of 0.06.
For A13G A20G U25C A64U, the self-cleavage was 0.11.
With A13G A47U A65G the self-cleavage was 0.23.
A13C A21G U25C U31A G70C gave a self-cleavage of 0.11.
With A13G A15G A18U U43C A45G U80A the self-cleavage was 0.03.
Work on A13C C39A U67C U74A yielded a self-cleavage of 0.14.
For A13G A18U A21G U58C, the self-cleavage was 0.11.
In the case of A13G A18G U49C A65U, the self-cleavage is reported as 0.08.
A13G A20U A21G U26C U41C A64G A75G gave a self-cleavage of 0.
With A13C A21G U41A A65G U80A the self-cleavage was 0.04.
For A13C A21G C23G U25C G30A, the self-cleavage was 0.15.
In the case of A13G A15G A35G, the self-cleavage is reported as 0.63.
For A13G A47U U49C C68A U72A, the self-cleavage was 0.09.
Variant A13C G19C C39A has a self-cleavage of 0.29.
Work on A13C A18U C27U U58C U60C yielded a self-cleavage of 0.09.
For A13G A28G A75G, the self-cleavage was 0.38.
A13C A21G A57G A64U U76C showed a self-cleavage of 0.12.
A13G A21G U51C C81U gave a self-cleavage of 0.33.
A13G A18G A28U gave a self-cleavage of 0.36.
With A13G A15G U48C the self-cleavage was 0.14.
For A13G A28U U49C, the self-cleavage was 0.18.
Work on A13G A35G U43C U49C U69C yielded a self-cleavage of 0.22.
In the case of A13G A21G U31C, the self-cleavage is reported as 0.41.
With A13G A21G A45G A56G U78G the self-cleavage was 0.09.
Variant A13G A20C A35G has a self-cleavage of 0.13.
A13G A35G U58C showed a self-cleavage of 0.2.
A13G A45G C59U A77U gave a self-cleavage of 0.42.
A13C A28G G63A A65G U69A showed a self-cleavage of 0.15.
Variant A13G A45G A56G has a self-cleavage of 0.45.
For A13G A21U A64G, the self-cleavage was 0.09.
A13C A45G U48A U51C A64G U72A showed a self-cleavage of 0.14.
For A13G A28U U43C U58G U66A U69A, the self-cleavage was 0.79.
With A13G A45G A64G G70U the self-cleavage was 0.18.
For A13G A15G C40U, the self-cleavage was 0.15.
A13C A28G C39U U76A U80C showed a self-cleavage of 0.37.
A13G A20U A21G U43C U66A gave a self-cleavage of 0.07.
A13C A28G A45U showed a self-cleavage of 0.21.
A13G A20U G46U gave a self-cleavage of 0.09.
A13G A20C U51C U74C showed a self-cleavage of 0.17.
A13G A15U C38U showed a self-cleavage of 0.46.
Work on A13G A15U C38G yielded a self-cleavage of 0.06.
A13C G33A A45U U67C U76A showed a self-cleavage of 0.08.
In the case of A13G A20U U25C U58C A77G, the self-cleavage is reported as 0.05.
Variant A13G A45U U58C U67C U76G has a self-cleavage of 0.13.
With A13G A20G A21G A47G U80C the self-cleavage was 0.34.
With A13G A21G U25C U69A the self-cleavage was 0.29.
Variant A13G A18G U26A has a self-cleavage of 0.41.
With A13C U43C A57U the self-cleavage was 0.39.
In the case of A13C A28C U58C, the self-cleavage is reported as 0.27.
In the case of A13C U25C A45C U48C U69A U76C, the self-cleavage is reported as 0.2.
For A13G A18G U26A A45G A47U, the self-cleavage was 0.12.
Work on A13C A28U A56G yielded a self-cleavage of 0.67.
For A13C A64G U72C A77U U78C, the self-cleavage was 0.56.
For A13G A21C G53A U54C U72A, the self-cleavage was 0.06.
Variant A13G A15U U69C U76C A77U has a self-cleavage of 0.14.
For A13G A18U G24A A77G, the self-cleavage was 0.42.
In the case of A13G A47G U54C C62A U80A, the self-cleavage is reported as 0.24.
In the case of A13G A18C U25C U26C C44U A65C U69A, the self-cleavage is reported as 0.05.
With A13G A35U U41A U67C U72A the self-cleavage was 0.05.
For A13G A28G U66C U78C, the self-cleavage was 0.18.
A13G A45U U66C G73C U74C U78C showed a self-cleavage of 0.09.
Work on A13G A35G G36A U41A A45G yielded a self-cleavage of 0.25.
A13C A18G U41C A56G U67C showed a self-cleavage of 0.42.
With A13G A15G A56U G70A C71G A75G the self-cleavage was 0.25.
For A13C U26C C39U C40A A64G U72C, the self-cleavage was 0.16.
A13G A47C G55C A57U showed a self-cleavage of 0.12.
Work on A13G A20G A57U A77G yielded a self-cleavage of 0.21.
A13G A21G C32U A45G U69A showed a self-cleavage of 0.02.
Variant A13G A35U A45G U49C U51A has a self-cleavage of 0.09.
For A13C A20U C39A U67C U74A, the self-cleavage was 0.07.
Variant A13C U41C C71A has a self-cleavage of 0.11.
Work on A13G A15C U51A U60C U67C yielded a self-cleavage of 0.28.
Variant A13G A35U C40G U41C U43C A45U U67C has a self-cleavage of 0.06.
For A13C U51A U69C, the self-cleavage was 0.62.
With A13G A45U C62U U76C U78C the self-cleavage was 0.14.
With A13G A21G A45U U78C the self-cleavage was 0.14.
In the case of A13G A20G U66A, the self-cleavage is reported as 0.27.
A13C U41A U43C A77G gave a self-cleavage of 0.15.
With A13G A28G U31A U78C the self-cleavage was 0.2.
Work on A13G A35G U66C U74A U78C yielded a self-cleavage of 0.2.
In the case of A13G A18G A21U G33C U49A, the self-cleavage is reported as 0.06.
In the case of A13G A21U U31C A45G U48A U54C U72A, the self-cleavage is reported as 0.08.
A13C A35U A65C U74A gave a self-cleavage of 0.18.
A13C U31C U41C U43C showed a self-cleavage of 0.08.
Variant A13G A18G U43G has a self-cleavage of 0.04.
For A13G A21G U25C G30C U72A, the self-cleavage was 0.24.
For A13C U31C A64G U67C, the self-cleavage was 0.1.
A13G A18G U41A A75U showed a self-cleavage of 0.37.
Variant A13G A20G A21G has a self-cleavage of 0.3.
With A13G A18U U31C U43C U76A the self-cleavage was 0.2.
Variant A13G A28C A57G G63C has a self-cleavage of 0.18.
A13G A35C A57G U58C U72A U80C showed a self-cleavage of 0.1.
With A13G A45U U51C U67C U78C the self-cleavage was 0.36.
In the case of A13C U51A U74C, the self-cleavage is reported as 1.04.
For A13C U25C G42A U43C, the self-cleavage was 0.23.
In the case of A13G A35G U72G U76A, the self-cleavage is reported as 0.5.
Work on A13C A18G U69A U78C yielded a self-cleavage of 0.53.
A13G A15C U31A gave a self-cleavage of 0.34.
Work on A13G A20G U26A C29U U49C yielded a self-cleavage of 0.08.
For A13G A18U U41A U48A, the self-cleavage was 0.06.
A13G A18U A45G showed a self-cleavage of 0.17.
In the case of A13G A15G A18U A20G U25A U67C C79A, the self-cleavage is reported as 0.
Variant A13G A20G A21G C29U U31A C39A A56U has a self-cleavage of 0.06.
In the case of A13G A56G U60C A77G, the self-cleavage is reported as 0.3.
With A13G A18U G55U U58A U66C U67A U76A the self-cleavage was 0.16.
A13C U43C A47C U72A A75G gave a self-cleavage of 0.03.
Variant A13G A28U G53U has a self-cleavage of 0.44.
In the case of A13C A56G U58C U72G U80C, the self-cleavage is reported as 0.51.
For A13G A20G U43C, the self-cleavage was 0.23.
A13C A18G U43C U78G showed a self-cleavage of 0.39.
Work on A13G A15C U49C U51G G63A U69C U78A yielded a self-cleavage of 0.34.
With A13C G24A U43A the self-cleavage was 0.12.
A13G A47U U48C U72C C81U showed a self-cleavage of 0.26.
Work on A13G A47G U76A yielded a self-cleavage of 0.96.
For A13C C32U A35G C40G U43A U54C U58C, the self-cleavage was 0.13.
A13G A20G U69A gave a self-cleavage of 0.23.
Variant A13G A56G U58A U69C U78A has a self-cleavage of 0.16.
In the case of A13G A28U C32G G63A A64U U72C, the self-cleavage is reported as 0.08.
With A13G A35U A45G the self-cleavage was 0.17.
A13G A21G A35G U41A U67A gave a self-cleavage of 0.39.
A13G A15U A56C U72C gave a self-cleavage of 0.23.
A13G A15G C59G U72C showed a self-cleavage of 0.2.
For A13G A20G C29U G52U, the self-cleavage was 0.3.
With A13G A18G A64G A65U the self-cleavage was 0.08.
A13G A35U C44U U69C showed a self-cleavage of 0.11.
In the case of A13G A18G U25A G53A, the self-cleavage is reported as 0.07.
A13C A35G U43C showed a self-cleavage of 0.78.
Work on A13G A21G A47U yielded a self-cleavage of 0.12.
For A13G A20U U60C U66A G70U, the self-cleavage was 0.06.
A13G A21G U25A A45U U58A A75G gave a self-cleavage of 0.03.
With A13G A18U U26C A28G U41C A64U U69C the self-cleavage was 0.1.
For A13G A20G U25A, the self-cleavage was 0.13.
A13G A18U U25C C29U gave a self-cleavage of 0.08.
Variant A13C A64G U76C has a self-cleavage of 1.
In the case of A13G A45G C59U U67C, the self-cleavage is reported as 0.03.
